No constants are given. Whether binding was seen depends on the method and setting. For part of these data: Binding seen in cells or lysates may run through a third protein. Some entries that bind do so weakly or less than the wild type.

Amino acid sequences for entries named in this document (tags omitted). A change or cut given only in a name is not applied to a line headed by its entry.
UniProt Q9LJX0: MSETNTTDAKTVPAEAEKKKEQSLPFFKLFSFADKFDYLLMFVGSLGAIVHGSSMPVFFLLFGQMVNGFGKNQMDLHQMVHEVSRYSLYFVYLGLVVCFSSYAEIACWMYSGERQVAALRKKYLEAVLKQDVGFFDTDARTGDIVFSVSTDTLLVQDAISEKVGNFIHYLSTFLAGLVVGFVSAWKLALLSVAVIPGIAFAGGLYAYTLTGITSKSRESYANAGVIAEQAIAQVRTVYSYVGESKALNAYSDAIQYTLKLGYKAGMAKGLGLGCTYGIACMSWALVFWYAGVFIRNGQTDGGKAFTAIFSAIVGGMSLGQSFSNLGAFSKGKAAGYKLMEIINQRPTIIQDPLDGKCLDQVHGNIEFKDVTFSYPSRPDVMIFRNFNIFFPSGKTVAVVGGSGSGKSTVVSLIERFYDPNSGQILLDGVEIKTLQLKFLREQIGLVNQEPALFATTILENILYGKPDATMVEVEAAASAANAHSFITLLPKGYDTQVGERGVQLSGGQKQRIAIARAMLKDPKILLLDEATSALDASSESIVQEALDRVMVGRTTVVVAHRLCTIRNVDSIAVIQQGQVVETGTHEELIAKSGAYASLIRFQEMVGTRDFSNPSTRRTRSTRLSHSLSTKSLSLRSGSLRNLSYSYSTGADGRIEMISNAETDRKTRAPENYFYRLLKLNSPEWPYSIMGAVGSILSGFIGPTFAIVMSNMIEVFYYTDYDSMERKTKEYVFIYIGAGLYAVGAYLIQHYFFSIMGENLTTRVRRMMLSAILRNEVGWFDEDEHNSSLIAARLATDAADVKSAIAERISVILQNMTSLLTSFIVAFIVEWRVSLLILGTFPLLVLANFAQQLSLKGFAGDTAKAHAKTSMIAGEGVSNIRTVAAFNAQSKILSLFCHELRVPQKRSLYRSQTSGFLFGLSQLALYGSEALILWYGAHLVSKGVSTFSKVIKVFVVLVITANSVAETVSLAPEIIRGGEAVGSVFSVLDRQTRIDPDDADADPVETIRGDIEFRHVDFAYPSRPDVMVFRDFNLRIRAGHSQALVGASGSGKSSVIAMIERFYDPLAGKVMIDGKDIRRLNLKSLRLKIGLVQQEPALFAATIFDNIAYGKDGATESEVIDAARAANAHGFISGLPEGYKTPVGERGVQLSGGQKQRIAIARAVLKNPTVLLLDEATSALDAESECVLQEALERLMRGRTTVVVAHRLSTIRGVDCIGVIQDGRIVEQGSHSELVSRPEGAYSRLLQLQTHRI

Results on three substances are retold here after PMC3110179.

The target of experiment [1] is phot1-YN (Arabidopsis thaliana) (UniProt O48963). Briefly: split reporter; BiFC: phot1-YN and B19-YC co-expressed in tobacco leaf epidermis; YFP fluorescence at the plasma membrane.
For experiment [2], the target named is phot1-green fluorescent protein (PHOT1:phot1-GFP) (Arabidopsis thaliana) (UniProt O48963). As to the kind of experiment: co-IP; phot1-GFP immunoprecipitated (GFP) from solubilized microsomes of 3-d-old etiolated Arabidopsis seedlings kept dark or exposed to blue light (20 µmol m^-2 s^-1, 5 min; interaction attenuated); immunoblot with anti-GFP and anti-B19.
In experiment [3] the target is T1, C-terminus of phot1 including its Ser/Thr kinase domain (amino acids 612-996), two-hybrid bait (Arabidopsis thaliana) (UniProt O48963).
T1 sequence: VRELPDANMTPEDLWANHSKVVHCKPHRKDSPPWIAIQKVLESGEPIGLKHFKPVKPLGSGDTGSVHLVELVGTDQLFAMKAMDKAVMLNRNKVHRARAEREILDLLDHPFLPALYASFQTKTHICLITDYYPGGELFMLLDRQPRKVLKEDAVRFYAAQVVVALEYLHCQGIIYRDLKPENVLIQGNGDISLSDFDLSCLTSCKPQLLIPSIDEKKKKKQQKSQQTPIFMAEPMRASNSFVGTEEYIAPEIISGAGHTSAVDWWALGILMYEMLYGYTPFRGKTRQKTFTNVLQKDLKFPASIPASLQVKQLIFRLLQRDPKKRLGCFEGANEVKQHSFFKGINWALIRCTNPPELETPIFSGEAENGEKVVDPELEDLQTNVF
Briefly: two-hybrid; yeast; regions of B19 (and B1) in pGADT7 prey, regions of PHOT1 in pGBKT7 bait; growth on full selection medium.

For B19-YC (from UniProt Q9LJX0 1-1252), the binding result in experiment [1] is reported as “binds”. In the case of “ATP-BINDING CASSETTE B19 (ABCB19), endogenous (from UniProt Q9LJX0 1-1252)”, in experiment [2], the binding result is on record as “binds”. Turning to “C-terminus of B19 (B19C, amino acids 1121-1252), two-hybrid prey (from UniProt Q9LJX0 1121-1252) (domain or fragment)”, the binding entry in experiment [3] is listed as “binds”.
